Experimental data reported in PubChem BioAssay AID1347073 (National Center for Advancing Translational Sciences (NCATS), 2019).
In all, about 45,000 compounds went through this assay and about 200 (0.44%) were called active. About 7% were inconclusive and are not listed. Calls follow the shape of the dose curve; as a rule, active = well fitted activation curve with a large enough effect; inconclusive = small, poorly fitted or top-dose-only effect; inactive = no such curve, though single readings can be large or run the other way. The list shows a part of the results.

Test: qHTS of TDP-43 Inhibitors: NCGC Sytravon Library Screen; also: nearly all actives have a fitted effect of over 55% in size; as to growth rescue (activation): 0% is about no effect
Conditions: yeast TDP-43 toxicity rescue, BacTiter-Glo growth, 24 h; series mostly up to 46.1 µM; growth rescue (activation): at the top concentration
How it was run: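 TDP-43-expressing yeast, pregrown in raffinose, seeded at OD600 0.02 in galactose medium with compound for 24 hr at 30 deg C. Growth read by BacTiter-Glo luminescence, so rescue of toxicity appears as activation.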
Potency is read from the fitted curve at half-maximal effect.

Row | Compound | growth rescue (activation) | Potency
1 | O=Cc1ccc(-c2ccc(Cl)cc2Cl)[nH]1 | inactive: 35.2% | 
2 | OC[C@@H]1CN(Cc2ccc3c(c2)OCO3)C[C@H](n2cnc3c(NCc4ccco4)ncnc32)O1 | inactive: 8.28% | 
3 | CCn1c(N2CCN(C(=O)/C=C/c3ccccc3)CC2)nc2ccccc21 | inactive: -1.81% | 
4 | CCc1ccc(N=C2NC(=O)/C(=C/c3cc(Br)c(OCC(=O)O)c(OC)c3)S2)cc1 | inactive: 13.8% | 
5 | CCN(CC)S(=O)(=O)c1ccc(Oc2ccccc2)c(N)c1 | inactive: 12.1% | 
6 | CC1(C)CC(NC(=O)Cc2ccccc2[N+](=O)[O-])CC(C)(C)N1 | inactive: -5.96% | 
7 | Cn1c(=O)n(C)c2cc(NS(=O)(=O)c3cccs3)ccc21 | inactive: 11.5% | 
8 | CC(C)CNC(=O)CN1c2cccc3cccc(c23)S1(=O)=O | inactive: 13.1% | 
9 | CN(c1cccc(NC(=O)c2ccc(N(C)S(=O)(=O)c3ccccc3)cc2)c1)S(C)(=O)=O | inactive: -1.65% | 
10 | C=CCNC(=O)c1c(Br)cnn1-c1ccc(C)cc1 | inactive: 8.69% | 
11 | CCNc1nc(NC#N)nc(SCC(=O)OCC)n1 | inactive: -3.95% | 
12 | CN1CCC(N(C)C(=O)c2cc(-c3ccc(F)cc3)nc3ccccc23)CC1 | inactive: 8.36% | 
13 | CC(=O)c1c(CSc2ccccc2)oc2ccc(O)c(CN(C)C)c12 | inactive: 2.72% | 
14 | CSc1ccc(C(=O)/C=C/c2ccc(N)cc2)cc1 | inactive: 27.4% | 
15 | CC(NC(=O)Cc1ccsc1)c1ccc(Cl)cc1Cl (centres undefined) | inactive: 3.98% | 
16 | Cc1ccc(/C=N/n2c(-c3cccnc3)n[nH]c2=S)o1 | inactive: 10.1% | 
17 | CN1CCN(S(=O)(=O)CC2(C)C3CCC2(C)C(=O)C3Br)CC1 (centres undefined) | inactive: 26.3% | 
18 | O=C(CN1CCC(NC(=O)c2cccc(F)c2)CC1)NCc1cccs1 | inactive: -0.496% | 
19 | CCOC(=O)C1CCCN(Cc2nc(C3CC3)no2)C1 (centres undefined) | inactive: 1.74% | 
20 | Cc1ccccc1C(=O)c1cccn1CC(=O)NCc1ccccc1 | inactive: 11.1% | 
21 | CC(C)C(N)c1csc(Nc2ccc(C(=O)N(C)Cc3ccccc3)cn2)n1 (centres undefined) | inactive: 0.813% | 
22 | O=[N+]([O-])c1cc(/C=N/n2c(-c3cccnc3)n[nH]c2=S)ccc1Cl | inactive: -11.4% | 

Row | Compound | growth rescue (activation) | Potency
23 | CC(C)c1nnc(NC(=O)C2CCN(C(=O)c3ccco3)CC2)s1 | inactive: 15.9% | 
24 | CC1(Oc2ccccc2-c2ccn[nH]2)CCN(Cc2ccc(OC(F)(F)F)cc2)C1 (centres undefined) | inactive: 26.8% | 
25 | O=C(CCl)Nc1cccc(-c2cnc3ccccc3n2)c1 |  | active: 12.6 µM
26 | O=C(O)COCC(=O)Nc1ccc(-n2cnnn2)cc1 | inactive: 9.64% | 
27 | CN(C(=O)COC(=O)/C=C/c1ccc(S(=O)(=O)N2CCc3ccccc32)cc1)C1CCS(=O)(=O)C1 (centres undefined) | inactive: -5.89% | 
28 | Cc1ccc(-c2cc(-c3ccccc3)c(C#N)c(Br)n2)cc1 | inactive: 14% | 
29 | CCOC(=O)N1CCC(NC(=O)C(C)n2c3ccccc3c3cnn(C)c(=O)c32)CC1 (centres undefined) | inactive: 11.9% | 
30 | CC(=O)N1CCc2cc(S(=O)(=O)NC(CC(C)C)C(=O)Nc3ccc4c(c3)OCCO4)ccc21 (centres undefined) | inactive: 12.5% | 
31 | CC(=O)c1cc2c(cc1N/C(=N/S(=O)(=O)c1ccc(C)cc1)c1ccccc1)OCO2 | inactive: -5.19% | 
32 | Cc1ccc(NC(=O)C2(C)CCCN2C)cc1C (centres undefined) | inactive: 10.9% | 
33 | COCCNC(=S)Nc1ccc2nc(N3CCN(C)CC3)cc(C)c2c1 | inactive: -27.8% | 
34 | CC(=O)NCCc1nc2ccccc2n1Cc1cccc(C)c1 | inactive: 17.4% | 
35 | Cc1ccc(C(C)C)c(OCC(=O)NC(=S)Nc2ccccc2N2CCOCC2)c1 | inactive: 15% | 
36 | CC(=O)c1cccc(N(C(=O)c2ccco2)C(C(=O)NC2CCCC2)c2ccccc2F)c1 (centres undefined) | inactive: 9.16% | 
37 | CCOc1cc(S(=O)(=O)n2cnc(C)c2)ccc1Cl | inactive: 15.9% | 
38 | CN(Cc1cnn(C)c1)Cc1nc(Cc2ccccc2Cl)no1 | inactive: 8.48% | 
39 | O=C(COc1cccnc1[N+](=O)[O-])Nc1ccc(Cl)cc1F | inactive: 8% | 
40 | CCCN(CCC)CCOc1cc(C)ccc1C(C)C | inactive: 6.11% | 
41 | CC(=O)Nc1ccc(OCC(=O)NCc2ccccc2)cc1 | inactive: 8.18% | 
42 | Cc1cccc(N2CC(C(=O)Nc3ccccc3N3CCOCC3)CC2=O)c1C (centres undefined) | inactive: 20.7% | 
43 | Cc1ccc(NS(=O)(=O)c2ccc(Br)s2)cc1S(=O)(=O)N1CCOCC1 | inactive: 3.8% | 
44 | COc1ccc(C(=O)C2CCCN(C(=O)c3ccc(F)cc3)C2)cc1OC (centres undefined) | inactive: 30.7% | 

Row | Compound | growth rescue (activation) | Potency
45 | O=C(NCc1ccc(Cl)cc1)C1CCN(C(=O)c2ccco2)CC1 | inactive: -5.36% | 
46 | COc1ccc(OCCN2CCN(C(=O)c3ccc(OC)cc3)CC2)cc1 | inactive: 9.68% | 
47 | O=C(OCC(=O)N1CCCC1)c1cc(Br)ccc1Cl | inactive: 7.59% | 
48 | CC(C)(C)c1ccc(C(CC(=O)O)NC(=O)c2ccccc2F)cc1 (centres undefined) | inactive: 6.02% | 
49 | CC1CCc2c(sc(NC(=O)CSc3nc4c(c(C(F)(F)F)n3)CCc3ccccc3-4)c2C(N)=O)C1 (centres undefined) | inactive: 4.13% | 
50 | CCOC(=O)N1CCN(C(=O)c2ccc(NS(=O)(=O)c3ccc(C)cc3)cc2)CC1 | inactive: -0.989% | 
51 | Cc1cccc(C)c1NC(=O)c1cn(-c2ccccc2)nc1-c1ccccc1 | inactive: 1.18% | 
52 | CN(C)c1ccc(/C=N/N(CCC#N)C2=NS(=O)(=O)c3ccccc32)cc1 | inactive: 8.38% | 
53 | CN(C)C(=O)c1cccc(-c2cnc3c(NC=O)cc(-c4cccc(C(F)(F)F)c4)cn23)c1 | inactive: 18.7% | 
54 | CC(C)(C)c1cc(Cl)ccc1OCCOCCN1CCCC1 | inactive: 2.83% | 
55 | CC1CCN(CCCN2C(=O)C3C(C(=O)Nc4cccc(Cl)c4)C4C=CC3(O4)C2C(=O)NC2CCCCC2)CC1 (centres undefined) | inactive: 7.23% | 
56 | Cc1nc2ccccc2nc1OCc1cccc([N+](=O)[O-])c1 | inactive: 14.1% | 
57 | CCC(=O)NC1(Cc2ccc(O)cc2)CCCCC1 | inactive: 14.3% | 
58 | CC(C)Oc1ccc(C(=O)NCCCNC(=O)c2cccnc2)cc1 | inactive: 9.35% | 
59 | CN(C)S(=O)(=O)c1cccc(NC(=S)NNC(=O)c2cc3ccccc3cc2O)c1 | inactive: 44% | 
60 | Cc1ccc(NC(=O)C(CC(=O)O)C2CCCO2)c(C)c1 (centres undefined) | inactive: -8.48% | 
61 | O=S(=O)(Nc1ccc(F)cc1)N1CCOCC1 | inactive: 13.8% | 
62 | Cc1cc(C)n(/N=C/c2ccccc2O)c(=O)c1 | inactive: 17.6% | 
63 | O=C(NCCO)c1ccc(-c2cnc3cccnn23)cc1 | inactive: 9.82% | 
64 | Cc1ccc(C(=O)Nc2nc(-c3ccc([N+](=O)[O-])cc3)cs2)o1 | inactive: 15.6% | 
65 | Cc1nn(-c2ccccn2)c2c1-c1nc(N3CCOCC3)ncc1CC2 | inactive: -16% | 
66 | COc1ccc(CCC(=O)Nc2ccc(C)c(S(=O)(=O)N(C)C)c2)cc1OC | inactive: -8.83% | 

Row | Compound | growth rescue (activation) | Potency
67 | COc1ccc(/C=N/NC(=O)c2ccc(Br)cc2)c(OC)c1 | inactive: -2.89% | 
68 | Cc1ccc(S(=O)(=O)N2CCN(C(=O)C(C)Cn3nc(C)c(C)c3C)CC2)cc1 (centres undefined) | inactive: -4.08% | 
69 | CC1=C(C(=O)Nc2ccccc2F)C(c2cccs2)NC(=S)N1 (centres undefined) | inactive: -7.53% | 
70 | COc1ccc(C)cc1Nc1nnc(C)c(=O)[nH]1 | inactive: -3.66% | 
71 | CC(C)(C)c1ccc(-c2nc(SCCCOc3ccccc3)n3[nH]c(=O)cc3n2)cc1 | inactive: 7.74% | 
72 | CCn1c(SCC(=O)NNC(=S)Nc2ccccc2)nnc1-c1ccc(Cl)cc1 | inactive: 17.8% | 
73 | COc1ccc(C(=O)CSc2nnc(CNC(=O)c3ccco3)n2C)cc1OC | inactive: 11.6% | 
74 | Cc1ccc(OCC(=O)NCCCNC(=O)c2cccnc2)cc1 | inactive: 1.73% | 
75 | O=C1NCCN1CCNS(=O)(=O)c1ccccc1[N+](=O)[O-] | inactive: 17.3% | 
76 | CCCCC(=O)NC(=S)Nc1cc(C(=O)O)ccc1Cl | inactive: 4.68% | 
77 | COc1ccc(/C=C2\SC(=S)N(N3CCOCC3)C2=O)c(OC)c1 | inactive: -0.681% | 
78 | CN(C)CCNC(=O)c1ccc2c(=O)n3c(nc2c1)CCCCC3 | inactive: -8.65% | 
79 | N#Cc1ccc(CN2C=NS(=O)(=O)c3ccccc32)cc1 | inactive: 12.4% | 
80 | CN1CCN(c2ccc(S(=O)(=O)N3CCCCC3)cc2NC(=O)c2ccc(C#N)cc2)CC1 | inactive: 11.5% | 
81 | O=c1cnn(Cc2ccc(F)cc2)c2ccccc12 | inactive: 2.22% | 
82 | CCCC(=O)N1CCCC(c2cc(C(=O)NCc3ccc(F)cc3)no2)C1 (centres undefined) | inactive: 23% | 
83 | CC(C)CC(N)c1csc(NC(=O)c2cc(C(C)(C)C)nn2Cc2ccccc2)n1 (centres undefined) | inactive: 14.3% | 
84 | Cc1ccc(S(=O)(=O)N2CCOCC2)cc1NC(=O)Cn1ccsc1=N | inactive: 15.1% | 
85 | O=S(=O)(NCCN1CCOCC1)c1ccc(Cl)s1 | inactive: 2.05% | 
86 | O=C(Nc1ccc(N2CCOCC2)cc1)c1cc2c(s1)CCCCC2 |  | active: 15.8 µM
87 | CCOC(=O)C(=O)N=Nc1c(O)n(C)c2ccccc12 | inactive: -0.787% | 
88 | CCOC(=O)Nc1ccc(S(=O)(=O)NC2CCCCC2)cc1 | inactive: 13% | 

Row | Compound | growth rescue (activation) | Potency
89 | COc1ccc(C2c3[nH]c4ccccc4c3CCN2C(=O)c2cn3ccccc3n2)c(F)c1 (centres undefined) | inactive: 3.39% | 
90 | O=C(CCN1C(=O)C2C3CC(C(Br)C3Br)C2C1=O)OCC(=O)c1cccc([N+](=O)[O-])c1 (centres undefined) | inactive: 8.47% | 
91 | Cc1nc(NCCc2ccccc2)c(C#N)c(C)c1[N+](=O)[O-] | inactive: 22.7% | 
92 | CC(CC(=O)N1CCN(S(=O)(=O)c2ccccc2)CC1)n1cncn1 (centres undefined) | inactive: -14.2% | 
93 | CCOc1ccccc1NC(=O)CNC(=O)c1nn(-c2ccc(OC)c(OC)c2)c(=O)c2ccccc12 | inactive: 12% | 
94 | Clc1ccc2nc(N3CCNCC3)nc(-c3ccccc3)c2c1 | inactive: -2.63% | 
95 | CC(C)(C)Nc1nc2ccc([N+](=O)[O-])cc2o1 | inactive: 26.5% | 
96 | CCCCNC(=S)N1CCN(C)CC1 | inactive: -9.67% | 
97 | N=c1sccn1CC(=O)Nc1cccc(S(=O)(=O)N2CCCCCC2)c1 | inactive: 3.39% | 
98 | O=C(NCC1CC1)c1cccc2c(-c3ccc(F)c(F)c3)coc12 |  | active: 22.4 µM
99 | Cc1ccccc1C(=O)NC1CCN(CC(=O)NCc2cccs2)CC1 | inactive: 16.1% | 
100 | CC(C)CCNC(=O)C(=O)Nc1ccccc1 | inactive: 7.46% | 
101 | CC(C)(C)c1oc(C(=O)O)cc1CN1CCOCC1 | inactive: 2.27% | 
102 | COc1cc(F)ccc1-c1csc(C(NC(C)=O)c2ccccc2)n1 (centres undefined) | inactive: 4.56% | 
103 | S=C(NCCc1ccccc1)NC1CC1 | inactive: 5.46% | 
104 | CCOc1c(CNCc2ccc(C(=O)O)cc2)cccc1OC | inactive: -4.65% | 
105 | COc1ccc(NC(=O)NNC(=O)c2ccc(-c3ccccc3)cc2)c(OC)c1 | inactive: 17.9% | 
106 | COC(CNC(=O)c1ccc2c3c(onc13)-c1ccccc1C2=O)OC | inactive: 13.9% | 
107 | O=C(Nc1cccc(S(=O)(=O)N2CCOCC2)c1)[C@@H]1CCCN1S(=O)(=O)c1ccc(Cl)cc1 | inactive: -5.55% | 
108 | O=C(Nc1nnc(COc2ccccc2)s1)Nc1ccccc1F | inactive: 6.98% | 
109 | C=CCN(Cc1nc(-c2ccccc2)no1)C(=O)c1ccco1 | inactive: 9.05% | 
